{"source": "PubChem BioAssay AID1345083", "about": "(National Center for Advancing Translational Sciences (NCATS), 2018)", "note": "Screen size: about 94,000 compounds; about 6,200 (6.6%) were called active. This list was built around the results that the source calls inconclusive (neither active nor inactive); the mix of calls is not that of the screen. The call rests on the fitted dose curve; in most records, active means well fitted inhibition curve with a large enough effect; inconclusive means small, poorly fitted or top-dose-only effect; inactive means flat fitted curve, though single readings scatter. Potencies of inconclusive entries are doubtful fits and often do not repeat. Potency means the concentration at half of the fitted maximal effect; tags describe the fitted curve by direction and shape."}
{"assay": "Cytotoxic Profiling in HEK 293 Cell Line of Diverse Libraries Using Quantitative High-Throughput Screening; further: nearly all actives have a fitted effect of over 60% in size", "settings": "HEK 293 viability, ATP luminescence (CellTiter-Glo), 48-72 h; series mostly up to 115 µM", "method_in_brief": "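HEK 293 seeded at 250 cells/well receive compound via pintool. After 48 or 72 hr at 37 degree Celsius, 5% CO2 and 95% humidity, CellTiter-Glo is dispensed and luminescence read following 10 min at room temperature.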"}
{"smiles": "Cc1ccc(CC(=O)N2CCC(CC(=O)NCc3ccccc3)C2)cc1", "note": "(configuration not stated)", "Potency": "inactive"}
{"smiles": "CCCCCNC(=O)CCN(CC)C(=O)c1cc(C)oc1C", "Potency": "inconclusive: 89.1 µM [inhibitor, single point]"}
{"smiles": "O=C(c1cccc(OC(F)(F)F)c1)N1CCC(N2CC3CC(C2)[C@H]2CCCC(=O)N2C3)CC1", "note": "(some centres not stated)", "Potency": "inactive"}
{"smiles": "O=C1CN(Cc2ccc(-c3ccccc3)cc2)CCN1c1cc(Cl)ncn1", "Potency": "active: 31.6 µM"}
{"smiles": "COCCNc1cc(-c2noc([C@@H]3CCCN3Cc3ccccn3)n2)ccn1", "Potency": "inconclusive: 126 µM [inhibitor, single point]"}
{"smiles": "Cc1nn2c(c1-c1ccccc1-c1ccccc1)N(Cc1ccccc1)CCC2", "Potency": "inconclusive: 17.8 µM [inhibitor, full curve, poor fit]"}
{"smiles": "O=C(O)c1ccc(C2CCCN(C(=O)c3cccc(N4CCOCC4)c3)C2)cc1", "note": "(configuration not stated)", "Potency": "inconclusive: 89.1 µM [inhibitor, single point]"}
{"smiles": "COCCNC(=O)c1ccc2oc(-c3ccncc3Cl)nc2c1", "Potency": "inconclusive: 5.01 µM [inhibitor, full curve, poor fit]"}
{"smiles": "O=C(O)CCC(=O)N1Cc2[nH]cnc2C[C@H]1c1nc(-c2ccc(OC(F)(F)F)cc2)no1", "Potency": "inactive"}
{"smiles": "COc1cccc(N2C(=O)NC(=NC3CCCC3)C23CCCN(Cc2cccnc2)C3)c1", "note": "(configuration not stated)", "Potency": "inactive"}
{"smiles": "CN1CCN(C(=O)c2cccnc2)CC12CCC(=O)N(CC1CC1)CC2", "note": "(configuration not stated)", "Potency": "inactive"}
{"smiles": "CCc1cc(N(C)Cc2ccc(OC)c(OC)c2)n2nccc2n1", "Potency": "inconclusive: 50.1 µM [inhibitor, partial curve, poor fit]"}
{"smiles": "COc1ccc(C(=O)N2CCN(C(=O)c3cccc(-c4cccc(OC)c4)c3)CC2)cc1", "Potency": "inconclusive: 50.1 µM [inhibitor, partial curve, poor fit]"}
{"smiles": "CN(C)C(=O)C1CCCCN1Cc1ccc(-c2cccs2)cc1", "note": "(configuration not stated)", "Potency": "inconclusive: 89.1 µM [inhibitor, partial curve, poor fit]"}
{"smiles": "COc1ccc(S(=O)(=O)N2CC(n3cnnc3C3CC3)C2)cc1", "Potency": "inconclusive: 31.6 µM [inhibitor, partial curve, poor fit]"}
{"smiles": "O=C(NCC(F)F)C1CCN(Cc2ccccc2-c2cccnc2)CC1", "Potency": "inactive"}
{"smiles": "COc1ccc(NC(=O)Cc2ccc(N(Cc3cccc(F)c3)C(=O)c3ccco3)cc2)cc1", "Potency": "inconclusive: 56.2 µM [inhibitor, partial curve, poor fit]"}
{"smiles": "COCc1ccc2c(c1)c(OC(C)(C)C(=O)NCC(F)(F)F)nn2Cc1ccccc1", "Potency": "inconclusive: 100 µM [inhibitor, partial curve]"}
{"smiles": "CC(=O)c1ccc(NC(=O)Cn2cccc2-c2nc(-c3ccc4c(c3)OCO4)no2)cc1", "Potency": "inconclusive: 89.1 µM [inhibitor, single point]"}
{"smiles": "N#Cc1ccc(C(=O)N2CCC3(CC2)NC(=O)N(Cc2ccccc2Cl)C3=O)cc1", "Potency": "inconclusive: 50.1 µM [inhibitor, partial curve, poor fit]"}
{"smiles": "Cc1noc(-c2cn(C3CCN(C(=O)Cc4ccc(Br)cc4)CC3)nn2)n1", "Potency": "inactive"}
{"smiles": "COC(=O)c1ccc2nc(C[C@@H]3C[C@@H](C(C)C)[C@H](CNC(=O)N4CCOCC4)C=C3C)[nH]c2c1", "Potency": "inconclusive: 56.2 µM [inhibitor, partial curve, poor fit]"}
{"smiles": "CCCc1nc(C(=O)N2CCN(c3ccccc3Cl)CC2)cs1", "Potency": "inconclusive: 89.1 µM [inhibitor, partial curve, poor fit]"}
{"smiles": "COCCN(C)C(=O)C(C)(C)Oc1nn(Cc2cccc(Cl)c2)c2ccccc12", "Potency": "active: 89.1 µM"}
{"smiles": "CC(=O)N1CCCN(C(=O)c2cnc3c(c2)N(C(=O)Cc2ccc(C(C)C)cc2)CCC3)CC1", "Potency": "inactive"}
{"smiles": "COc1ccccc1C(=O)NC1CCN(c2ccc3nnc(-c4ccccc4)n3n2)CC1", "Potency": "active: 35.5 µM"}
{"smiles": "Cc1cc(NS(=O)(=O)c2ccc3c(c2)CN(C(=O)CCC(C)C)CC3)no1", "Potency": "inactive"}
{"smiles": "CN(C)Cc1cc(C[C@@H]2C[C@H](NC(=O)C3CCC3)C2(C)C)no1", "Potency": "inconclusive: 89.1 µM [inhibitor, partial curve, poor fit]"}
{"smiles": "Cc1ccc(C(=O)N2CCC(N3C(=O)CCC3C(=O)NCc3ccccc3)CC2)cc1", "note": "(configuration not stated)", "Potency": "inactive"}
{"smiles": "COc1ccc(-c2noc(-c3cccn3CC(=O)Nc3ccccc3)n2)cc1F", "Potency": "inactive"}
{"smiles": "COc1cc(Cl)ccc1C(=O)NC1CCN(c2cc(-c3cccs3)[nH]n2)C1", "note": "(configuration not stated)", "Potency": "inconclusive: 79.4 µM [inhibitor, partial curve]"}
{"smiles": "CCc1ccc(Cn2nc(C3CC3)nc2-c2cnn(C)c2)cc1", "Potency": "inconclusive: 100 µM [inhibitor, partial curve, poor fit]"}
{"smiles": "Cc1cc(C)n(CC(=O)N2CCCCCNC(=O)CC2c2ccccc2)n1", "note": "(configuration not stated)", "Potency": "inactive"}
{"smiles": "CCN1CCN(CCCN2CC3(CCN(c4ncccc4F)CC3)OC2=O)CC1", "Potency": "inconclusive: 89.1 µM [inhibitor, single point]"}
{"smiles": "CC(C)CN(CCCNC(=O)C1CCN(c2cnn(C)c(=O)c2)C1)CC(C)C", "note": "(configuration not stated)", "Potency": "inactive"}
{"smiles": "COc1ccccc1-c1onc(C)c1C(=O)NCc1ccccc1Cl", "Potency": "inconclusive: 50.1 µM [inhibitor, partial curve, poor fit]"}
{"smiles": "Cc1ccc(C(=O)N2CCC3(CC2)NC(=O)N(Cc2ccc(F)cc2)C3=O)cc1F", "Potency": "inconclusive: 56.2 µM [inhibitor, partial curve, poor fit]"}
{"smiles": "COc1ccc2c(c1)OCC(CNC(=O)c1ccc(N3CCN(C)CC3)cc1)C2", "note": "(configuration not stated)", "Potency": "inconclusive: 89.1 µM [inhibitor, single point]"}
{"smiles": "O=C(O)C[C@@H]1CCN(C(=O)c2cccs2)C[C@@H]1CCN1CCN(c2cccc(C(F)(F)F)c2)CC1", "Potency": "inactive"}
{"smiles": "CCc1ccccc1S(=O)(=O)N1C[C@@H](F)C[C@H]1C(=O)N1CCc2ccccc2C1", "Potency": "inconclusive: 35.5 µM [inhibitor, full curve, poor fit]"}
{"smiles": "COCc1cn([C@H]2CO[C@H]3[C@@H]2OC[C@H]3OC(=O)Nc2cccc(C(F)(F)F)c2)nn1", "Potency": "active: 79.4 µM"}
{"smiles": "Cc1cc(C(=O)NC2CCN(c3ccnc4ccnn34)CC2)ccc1Cl", "Potency": "inconclusive: 50.1 µM [inhibitor, partial curve, poor fit]"}
